Among all 310,000 compounds or so, about 14,000 (4.5%) showed an effect of 50% or more. Effects have a minus sign here. Some of the results follow.
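Also: peak tail current of the secondary pulse compared with the same well before compound.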

human ether-à-go-go-related gene (hERG) potassium channel, sequence (Q12809 whole entry, looked up): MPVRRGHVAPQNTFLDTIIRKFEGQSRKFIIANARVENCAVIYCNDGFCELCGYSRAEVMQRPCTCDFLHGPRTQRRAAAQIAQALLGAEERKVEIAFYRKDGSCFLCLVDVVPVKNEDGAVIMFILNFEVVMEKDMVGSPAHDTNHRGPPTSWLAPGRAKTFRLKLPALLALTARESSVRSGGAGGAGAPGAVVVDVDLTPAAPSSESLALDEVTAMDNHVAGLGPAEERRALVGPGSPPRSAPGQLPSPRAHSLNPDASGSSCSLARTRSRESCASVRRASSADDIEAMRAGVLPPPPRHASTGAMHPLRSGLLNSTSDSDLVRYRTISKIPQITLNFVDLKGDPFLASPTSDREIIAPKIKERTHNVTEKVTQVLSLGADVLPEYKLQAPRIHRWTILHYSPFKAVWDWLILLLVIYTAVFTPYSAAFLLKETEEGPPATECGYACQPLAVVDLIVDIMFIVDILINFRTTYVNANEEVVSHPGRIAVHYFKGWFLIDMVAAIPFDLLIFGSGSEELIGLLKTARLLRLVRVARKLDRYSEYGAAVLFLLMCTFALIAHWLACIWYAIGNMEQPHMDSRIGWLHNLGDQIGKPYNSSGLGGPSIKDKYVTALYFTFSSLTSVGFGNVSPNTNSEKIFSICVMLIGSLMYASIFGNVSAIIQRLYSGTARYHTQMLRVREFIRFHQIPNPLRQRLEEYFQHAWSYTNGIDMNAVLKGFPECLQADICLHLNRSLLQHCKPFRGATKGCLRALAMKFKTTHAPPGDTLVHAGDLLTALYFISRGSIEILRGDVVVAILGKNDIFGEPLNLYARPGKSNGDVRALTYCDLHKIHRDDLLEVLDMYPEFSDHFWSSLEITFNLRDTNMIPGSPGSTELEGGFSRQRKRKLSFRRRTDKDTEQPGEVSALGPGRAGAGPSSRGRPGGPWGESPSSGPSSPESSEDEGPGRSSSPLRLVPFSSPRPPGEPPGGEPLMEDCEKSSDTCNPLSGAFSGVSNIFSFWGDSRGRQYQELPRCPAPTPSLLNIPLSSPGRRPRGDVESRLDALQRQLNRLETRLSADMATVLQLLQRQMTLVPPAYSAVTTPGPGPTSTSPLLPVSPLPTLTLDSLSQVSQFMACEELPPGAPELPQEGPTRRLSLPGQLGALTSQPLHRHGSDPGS

This experiment has as its target human ether-à-go-go-related gene (hERG) potassium channel (human, UniProt Q12809). The experiment can be described thus: primary screen, population patch clamp on CHO cells stably expressing hERG.
With `Cc1ccc(-c2c[n+](CC(=O)N3c4ccccc4Sc4ccccc43)c3n2CCC3)cc1.[Cl-]`, the “hERG current change (%, negative = inhibition) at 10uM” value is reported as -49.1%. Regarding `CN(C)/C=C/C(=O)c1ccc(C(F)(F)F)cc1F`, the “hERG current change (%, negative = inhibition) at 10uM” value was determined as 15.3%.

On to `CCOc1ncccc1C(=O)OCc1ccc(C#N)cc1`, for which the “hERG current change (%, negative = inhibition) at 10uM” value is recorded as -25.8%. The value for `O=C(O)c1cc(S(=O)(=O)NCc2ccco2)c(Cl)cc1Cl` was 14.9%.

On to `Cc1cc(Cl)c(S(=O)(=O)N2CCSCC2)cc1OCC(N)=O`, for which the “hERG current change (%, negative = inhibition) at 10uM” value is given as -15.7%.

As for `CC(=O)N1CC(C)Sc2ccc(S(=O)(=O)NC3CCCCC3C)cc21` (centres unmarked), the “hERG current change (%, negative = inhibition) at 10uM” value is -18.9%. Regarding `O=C1CSCN1c1ccc(Cl)c(Cl)c1`, the “hERG current change (%, negative = inhibition) at 10uM” value was -3.38%. Turning to `CSCC(O)Cn1[nH]c(=O)c2cc(Cl)c(Cl)cc2c1=O` (centres unmarked), the “hERG current change (%, negative = inhibition) at 10uM” value worked out at 18.6%. As for `CCC(=O)c1ccc(OC(C)C(=O)NC2(C#N)CCCCC2)cc1` (centres unmarked), the “hERG current change (%, negative = inhibition) at 10uM” value is 28.9%. The figure for `COc1ccc(NS(=O)(=O)c2ccc3[nH]c(=O)[nH]c3c2)cc1` is 27.7%. Regarding `O=C(Nc1ccc(Cl)cc1Cl)c1ccc2c(c1)OCCO2`, the “hERG current change (%, negative = inhibition) at 10uM” value turned out to be 0.458%. Turning to `Cc1cc(N2CCCC2)nc2ccc(NC(=S)NCCCOC(C)C)cc12`, the “hERG current change (%, negative = inhibition) at 10uM” value is -83.4%.

For the molecule `CN(C)c1nc2c(N)ncnc2n1[C@H]1O[C@@H](CO)[C@H](O)[C@@H]1O`, the “hERG current change (%, negative = inhibition) at 10uM” value was determined as 7.28%. As for `COc1cnc(-c2ccccn2)nc1Sc1ccccc1`, the “hERG current change (%, negative = inhibition) at 10uM” value is reported as -3.95%.

Turning to `O=C(Cn1nc(-c2ccccc2)ccc1=O)NCC1COCCO1` (centres unmarked), the “hERG current change (%, negative = inhibition) at 10uM” value is recorded as -1.47%.

In the case of `NC(=O)C1(N2CCCCC2)CCN(S(=O)(=O)c2cc(Cl)ccc2Cl)CC1`, the “hERG current change (%, negative = inhibition) at 10uM” value was -32.2%. The value for `COc1cccc(N2CCN(CC(=O)Nc3ccc(S(=O)(=O)N4CCCCCC4)cc3)CC2)c1` was -21.9%. `O=C(c1ccc(Cl)cc1)N1CCN(C(=O)C2CCCCC2)CC1`: the “hERG current change (%, negative = inhibition) at 10uM” value is -2.89%. `COc1ccc(NC(=O)Cn2c(=O)oc3cc(Cl)ccc32)c(OC)c1`: the “hERG current change (%, negative = inhibition) at 10uM” value was found to be 14.7%. As for `CC1=C(C(=O)OCc2ccc3c(c2)OCO3)C(c2ccc(F)cc2)NC(=O)N1` (centres unmarked), the “hERG current change (%, negative = inhibition) at 10uM” value is recorded as -24.9%.

Regarding `C=CCSc1nc2ccccc2c2nc(-c3ccccc3)nn12`, the “hERG current change (%, negative = inhibition) at 10uM” value worked out at 9.06%. Take `O=C(/C=C/c1ccc(Br)o1)NC(c1ccccc1)c1ccccc1`: the “hERG current change (%, negative = inhibition) at 10uM” value was -10.1%. Regarding `COC(=O)c1sc(NC(=O)c2cc(C)on2)nc1C`, the “hERG current change (%, negative = inhibition) at 10uM” value came to 0.597%. The value for `COc1cc(C)ccc1OCC(=O)Nc1ccccc1N1CCOCC1` was -21.5%; that for `CCC(Oc1ccc(C)cc1)C(=O)Nc1ccccc1C(=O)N1CCOCC1` (centres unmarked) was 13.7%; that for `COc1ccc(N2CCN(c3oc(-c4ccccc4OC)nc3C#N)CC2)cc1` was -17.6%. `Cc1cccc(NC(=O)c2nc[nH]c2C(=O)N(C)Cc2ccccc2)c1`: the “hERG current change (%, negative = inhibition) at 10uM” value came to 8.87%.

`O=C(/C=C/c1ccccc1)NCCOc1ccccc1`: the “hERG current change (%, negative = inhibition) at 10uM” value is recorded as -13.5%. For the molecule `CC(OC(=O)Cc1cccc(C(F)(F)F)c1)C(=O)Nc1ccc(Cl)cn1` (centres unmarked), the “hERG current change (%, negative = inhibition) at 10uM” value was -24.9%. For `CCO[C@H]1OC(C(=O)N2CCN(Cc3ccc4c(c3)OCO4)CC2)=C[C@@H](C)[C@@H]1CCCO`, the “hERG current change (%, negative = inhibition) at 10uM” value was found to be 0.739%. As for `CCN(CC)CCNC(=O)CS(=O)Cc1nc(-c2ccc(C)cc2)oc1C` (centres unmarked), the “hERG current change (%, negative = inhibition) at 10uM” value is reported as -11.8%. The figure for `CCSc1sccc1C1C(C#N)=C(N)N(c2cccnc2)C2=C1C(=O)CC(C)(C)C2` (centres unmarked) is -50.4%; for `O=S(=O)(NCCCCCNS(=O)(=O)c1c(F)cccc1F)c1ccc2c(c1)OCCO2` it is -18.7%. `Cc1noc(C)c1CSc1nnc(-c2c[nH]c3ccccc23)n1-c1ccc(Cl)cc1`: the “hERG current change (%, negative = inhibition) at 10uM” value amounted to 2.32%. On to `C=CCn1c(C)cc(C(=O)COc2ccc(C)nc2[N+](=O)[O-])c1C`, for which the “hERG current change (%, negative = inhibition) at 10uM” value is listed as -19.3%. For the molecule `COc1ccc(C(=O)NC(=S)Nc2ccc3oc(=O)ccc3c2)cc1`, the “hERG current change (%, negative = inhibition) at 10uM” value was 11.5%. As to `COc1ccc(O)c(/C=N/c2sc(C)c(C)c2C#N)c1`, the “hERG current change (%, negative = inhibition) at 10uM” value is -19.6%.

On to `Cc1nc(/C(N)=N/OC(=O)c2c(-c3ccccc3Cl)noc2C)cs1`, for which the “hERG current change (%, negative = inhibition) at 10uM” value stood at 11%. For the molecule `CN(C)CC1CCCCC1OC(=O)/C=C/c1ccc(Cl)cc1Cl.Cl` (centres unmarked), the “hERG current change (%, negative = inhibition) at 10uM” value is -32.4%. `CCOC(=O)CC(=O)CSc1nc2ccc(C)cc2cc1C#N`: the “hERG current change (%, negative = inhibition) at 10uM” value is -21.6%.

As for `CCOc1ccc(N(C)c2ccc(/C=C3/SC(=S)NC3=O)cc2)cc1`, the “hERG current change (%, negative = inhibition) at 10uM” value worked out at 16.7%. The figure for `COc1ccc(C(=O)/C=C(\N)C(F)(F)F)c(O)c1` is -1.25%. Take `Cc1ccc(C)c(NC(=O)CN(C)C(=O)c2ccc(-c3cccc(C(F)(F)F)c3)o2)c1`: the “hERG current change (%, negative = inhibition) at 10uM” value is -5.55%. The value for `CC(C)(CSc1nncn1/N=C/c1ccco1)NS(=O)(=O)c1ccc(Cl)cc1` was -43.3%.

(Values after paper PMC4336329 (PLoS ONE, 2015).)
